Experimental data published in PubChem BioAssay AID1508642 (National Center for Advancing Translational Sciences (NCATS), 2021).
About 200 (0.47%) of roughly 43,000 compounds were called active. Roughly 12% stayed inconclusive and do not appear here. Calls come from the whole dose curve; as a rule, active = well fitted cell-killing curve with a large enough effect; inconclusive = small, poorly fitted or top-dose-only effect, or effect the other way; inactive = flat fitted curve, though single readings scatter. Some of the results follow.

Test: Cell viability qHTS assay in S16 Pmp22-F2sN cells; note: nearly all actives have a fitted effect of over 65% in size
Settings: S16 Pmp22-F2sN Schwann cells (luciferase reporters placed in the Pmp22 gene) viability, CellTiter-Glo, 24 h; series mostly up to 57.5 µM; activity change, negative = cytotoxicity: at the top concentration
Summary of the method: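 S16 Schwann cells carrying the Pmp22-F2sN reporter, seeded in 1536-well format, were exposed to library compounds for 24 h at 37C. Viability was read as CellTiter-Glo luminescence after 15 min at room temperature.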
% is set by controls: 0 for no effect and ±100 for the full control effect.

Question: Which “activity change, negative = cytotoxicity” value does the source give for `COc1ccccc1C(=O)NC1(C(F)(F)F)NC(=O)N(CCc2ccccc2)C1=O` (stereo not given) here?
Answer: inactive: 4.9%

Question: For `Cc1cc(C)c(NC(=O)CSc2nc(=O)n(Cc3ccncc3)c3c2CCC3)c(C)c1`, which “activity change, negative = cytotoxicity” value is on record?
Answer: inactive: 1.18%

Question: For `CC1=C(C(=O)Nc2ccccc2)C(c2ccccn2)n2nc(SCc3ccccc3)nc2N1` (stereo not given), which “activity change, negative = cytotoxicity” value is on record?
Answer: inactive: 18.5%

Question: For `Cc1ccc(-n2nc(C)c3c(C(=O)Nc4ccccc4C(F)(F)F)cc(C)nc32)cc1`, which “activity change, negative = cytotoxicity” value is on record?
Answer: inactive: 5.83%

Question: Which “activity change, negative = cytotoxicity” value does the source give for `CCOc1ccc2nc(N(Cc3cccnc3)C(=O)c3cccs3)sc2c1` here?
Answer: inactive: 12.6%

Question: For `COc1ccc(-c2nc3ccccc3n2Cc2ccccc2)cc1`, which “activity change, negative = cytotoxicity” value is on record?
Answer: inactive: 1.54%

Question: For `CCCCCOc1ccc(NC(=O)Cn2c(-c3nonc3N)nc3ccccc32)cc1`, which “activity change, negative = cytotoxicity” value is on record?
Answer: inactive: 13.7%

Question: Which “activity change, negative = cytotoxicity” value does the source give for `COc1cccc(CNC(=O)Cn2nc(C)n3c(cc4cc(C)ccc43)c2=O)c1OC` here?
Answer: inactive: 6.05%

Question: Which “activity change, negative = cytotoxicity” value does the source give for `CCSc1nc(-c2cccc(Cl)c2)nc2c1Cc1c(CO)cnc(C)c1O2` here?
Answer: inactive: -4.46%

Question: Which “activity change, negative = cytotoxicity” value does the source give for `CCCN(C(=O)c1cc2c(=O)oc3ccc(C)cc3c2s1)c1ccc(OCC)cc1` here?
Answer: inactive: 3.35%

Question: With `COc1ccc(C2Nc3ccccc3-c3cc(C)nn32)c(OC)c1` (stereo not given) as the molecule, how does the “activity change, negative = cytotoxicity” value read?
Answer: inactive: -2.73%

Question: For `Cc1cccc(C)c1OCCn1c(CCNC(=O)C2CCCCC2)nc2ccccc21`, which “activity change, negative = cytotoxicity” value is on record?
Answer: inactive: -16.8%

Question: Which “activity change, negative = cytotoxicity” value does the source give for `COc1ccc(C)c2sc(NC(=O)c3ccc(S(=O)(=O)N4CCOCC4)cc3)nc12` here?
Answer: inactive: 5.41%

Question: With `COc1ccccc1CNC(=O)C(=O)NCC(c1ccco1)S(=O)(=O)c1ccc(F)cc1` (stereo not given) as the molecule, how does the “activity change, negative = cytotoxicity” value read?
Answer: inactive: -13.4%

Question: With `COc1cccc(N2CCN(C(=O)c3cnc4c(-c5ccc(F)cc5)c(C)nn4c3C)CC2)c1` as the molecule, how does the “activity change, negative = cytotoxicity” value read?
Answer: inactive: -7.78%

Question: With `COc1ccc(C(=O)Oc2c(Sc3ccccc3)c(C)nn2-c2ccccc2)c(OC)c1` as the molecule, how does the “activity change, negative = cytotoxicity” value read?
Answer: inactive: 18.8%

Question: Which “activity change, negative = cytotoxicity” value does the source give for `CCN(CC)S(=O)(=O)c1ccc2c(c1)N(CC(=O)Nc1ccc(Cl)cc1)C(=O)C1CCCN21` (stereo not given) here?
Answer: inactive: 0.0942%

Question: With `CC(C)(C)c1ccc(C(=O)NCC(c2ccco2)S(=O)(=O)c2ccccc2)cc1` (stereo not given) as the molecule, how does the “activity change, negative = cytotoxicity” value read?
Answer: inactive: -28.7%

Question: For `COC(=O)c1ccccc1NS(=O)(=O)c1cc2c3c(c1)CC(=O)N3CCC2`, which “activity change, negative = cytotoxicity” value is on record?
Answer: inactive: -8.64%

Question: For `Cn1cc(-c2cc3n(n2)CCC(=O)N3CCCC(=O)Nc2ccc(Cl)cc2)c2ccccc21`, which “activity change, negative = cytotoxicity” value is on record?
Answer: inactive: 12.7%

Question: Which “activity change, negative = cytotoxicity” value does the source give for `CC(=O)N1CCCc2cc(S(=O)(=O)N(C)CC(=O)Nc3ccc(C(C)C)cc3)ccc21` here?
Answer: inactive: -26.4%

Question: With `CC(C)c1ccc(OCC(=O)Nc2ccc(S(=O)(=O)Nc3ncccn3)cc2)cc1` as the molecule, how does the “activity change, negative = cytotoxicity” value read?
Answer: inactive: -0.528%

Question: Which “activity change, negative = cytotoxicity” value does the source give for `COc1ccc(NC(=O)Cn2ccn(-c3ccc(F)c(F)c3)c(=O)c2=O)cc1Cl` here?
Answer: inactive: 0.484%

Question: With `COc1cccc(CNC(=O)c2sc3nc[nH]c(=O)c3c2C)c1` as the molecule, how does the “activity change, negative = cytotoxicity” value read?
Answer: inactive: -4.48%

Question: For `COc1ccc(CNC(=O)CCC2N=C3c4ccccc4N=C(SCC(=O)NCCc4ccc(OC)c(OC)c4)N3C2=O)cc1` (stereo not given), which “activity change, negative = cytotoxicity” value is on record?
Answer: inactive: -8.02%

Question: For `CC(C)OC(=O)c1c(NC(=O)c2cccc(C(F)(F)F)c2)sc2c1CCCC2`, which “activity change, negative = cytotoxicity” value is on record?
Answer: inactive: 3.97%

Question: Which “activity change, negative = cytotoxicity” value does the source give for `O=C1CC(c2ccccc2)Sc2ccccc2N1Cc1ccccc1F` (stereo not given) here?
Answer: inactive: 12.2%

Question: With `O=C(c1ccccc1Cl)n1nc(-c2ccco2)nc1NCc1cccs1` as the molecule, how does the “activity change, negative = cytotoxicity” value read?
Answer: inactive: 8.72%

Question: For `Cc1cccc(CNC(=O)c2cnc3c(-c4cccc(C)c4)c(C)nn3c2C)c1`, which “activity change, negative = cytotoxicity” value is on record?
Answer: inactive: -2.2%

Question: Which “activity change, negative = cytotoxicity” value does the source give for `CCCCC(=O)N1c2ccccc2C(C)(c2ccccc2)CC1(C)C` (stereo not given) here?
Answer: inactive: -1.36%

Question: Which “activity change, negative = cytotoxicity” value does the source give for `COc1ccc(OC)c(CCNc2ncnc3onc(-c4ccc(Cl)cc4)c23)c1` here?
Answer: inactive: 0.514%

Question: For `CCc1ccc(S(=O)(=O)NCCc2cn3ccsc3n2)cc1`, which “activity change, negative = cytotoxicity” value is on record?
Answer: inactive: -0.368%

Question: With `CC(=O)N1CCCc2cc(S(=O)(=O)N(C)CC(=O)Nc3cccc(Cl)c3C)ccc21` as the molecule, how does the “activity change, negative = cytotoxicity” value read?
Answer: inactive: -21.8%

Question: For `Cc1ccc(NC(=O)CSc2nc3c(oc4ccccc43)c(=O)n2Cc2ccco2)cc1F`, which “activity change, negative = cytotoxicity” value is on record?
Answer: inactive: 0.964%

Question: For `Cc1nc(-n2nc(C)c(Cc3ccc(Cl)cc3)c2C)sc1C(=O)N1CCC(C)CC1`, which “activity change, negative = cytotoxicity” value is on record?
Answer: inactive: 7.33%

Question: Which “activity change, negative = cytotoxicity” value does the source give for `CCN(CC)c1ccc(NC(=O)COCc2cc(-c3ccc4c(c3)OCO4)on2)c(C)c1` here?
Answer: inactive: -5.83%

Question: With `Cc1ccccc1Cn1c2ccccc2c2cnn(CC(=O)NCc3cccc(Cl)c3)c(=O)c21` as the molecule, how does the “activity change, negative = cytotoxicity” value read?
Answer: inactive: 7.51%

Question: Which “activity change, negative = cytotoxicity” value does the source give for `CCOC(=O)c1ccc(CN(Cc2ccc(F)cc2)S(=O)(=O)c2ccc(F)c(C(=O)Nc3cc(Cl)ccc3OC)c2)cc1` here?
Answer: inactive: 4.06%

Question: With `Cc1ccc(N2CCN(C(=O)c3c(C)oc4ncn(C)c(=O)c34)CC2)c(C)c1` as the molecule, how does the “activity change, negative = cytotoxicity” value read?
Answer: inactive: -4.58%

Question: For `CCN(c1ncnc2c1cnn2-c1ccc(C)cc1)C1CCCCC1`, which “activity change, negative = cytotoxicity” value is on record?
Answer: inactive: 8.9%

Question: Which “activity change, negative = cytotoxicity” value does the source give for `CCOC(=O)c1cccc(NC(=O)c2cc3sccc3n2Cc2ccc(Cl)cc2)c1` here?
Answer: inactive: 2.56%

Question: Which “activity change, negative = cytotoxicity” value does the source give for `CCOc1ccc(CCNC(=O)CCc2cn(Cc3ccccc3F)c3ccccc23)cc1OCC` here?
Answer: inactive: 21.4%

Question: For `COCCn1c(=O)[nH]c2cc(C(=O)NCc3ccccc3Cl)ccc2c1=O`, which “activity change, negative = cytotoxicity” value is on record?
Answer: inactive: 9%

Question: With `CCOc1ccc(NC(=O)c2c(Nc3ccc(OC)cc3OC)sc(C(=O)c3ccc(Cl)cc3)c2N)cc1` as the molecule, how does the “activity change, negative = cytotoxicity” value read?
Answer: inactive: -5.56%

Question: For `CCOc1ccc(NC(=O)CSc2nc(-c3ccc(OC)cc3)nc3c2Cc2c(CO)cnc(C)c2O3)cc1`, which “activity change, negative = cytotoxicity” value is on record?
Answer: inactive: 20.7%

Question: Which “activity change, negative = cytotoxicity” value does the source give for `CCOC(=O)c1cc(S(=O)(=O)NCc2ccccc2)[nH]n1` here?
Answer: inactive: 0.303%

Question: Which “activity change, negative = cytotoxicity” value does the source give for `O=C(Cn1c(=O)ccc2cc(S(=O)(=O)N3CCCC3)ccc21)NCc1ccc(Cl)cc1` here?
Answer: inactive: 6.73%

Question: For `O=C(c1ccc(Cl)cc1)N1CCC(c2ccncc2)CC1`, which “activity change, negative = cytotoxicity” value is on record?
Answer: inactive: -10.6%

Question: With `CCN(CC)S(=O)(=O)c1ccc2nc(NC(=O)c3cccnc3)sc2c1` as the molecule, how does the “activity change, negative = cytotoxicity” value read?
Answer: inactive: 3.58%

Question: With `COc1cc(-c2noc(-c3ccc(N4CCN(C)CC4)c([N+](=O)[O-])c3)n2)cc(OC)c1OC` as the molecule, how does the “activity change, negative = cytotoxicity” value read?
Answer: inactive: 14.6%

Question: Which “activity change, negative = cytotoxicity” value does the source give for `CCC(CO)NC(=O)C(=O)Nc1c2c(nn1-c1ccc(F)cc1)CSC2` (stereo not given) here?
Answer: inactive: -5.72%

Question: With `Cc1ccc(NC(=O)C2CCCN(c3nnc(C)c4c(C)n(-c5ccccc5)nc34)C2)c(Cl)c1` (stereo not given) as the molecule, how does the “activity change, negative = cytotoxicity” value read?
Answer: inactive: -3.71%

Question: For `O=[N+]([O-])c1cc(-c2nc(-c3ccccc3)no2)ccc1N1CCCCC1`, which “activity change, negative = cytotoxicity” value is on record?
Answer: inactive: 24.3%

Question: Which “activity change, negative = cytotoxicity” value does the source give for `COc1ccc(C(=O)OCc2cc(=O)n3nc(-c4cccs4)sc3n2)cc1` here?
Answer: inactive: -3.85%

Question: For `CCC(Cn1nnc2ccccc2c1=O)NC(=O)Nc1cccc(C)c1C` (stereo not given), which “activity change, negative = cytotoxicity” value is on record?
Answer: inactive: -2.15%

Question: For `O=C(Cn1c(=O)n(Cc2ccco2)c(=O)c2ccccc21)Nc1ccc(Cl)cc1Cl`, which “activity change, negative = cytotoxicity” value is on record?
Answer: inactive: 25.4%

Question: For `CC1=C(C(=O)Nc2ccccc2)C(c2ccncc2)n2nc(SCc3ccccc3Cl)nc2N1` (stereo not given), which “activity change, negative = cytotoxicity” value is on record?
Answer: inactive: 9.11%

Question: Which “activity change, negative = cytotoxicity” value does the source give for `Cc1ccc2nc(Nc3cccc(Cl)c3C)c(-n3nc(C)cc3C)nc2c1` here?
Answer: inactive: -0.607%

Question: With `CC(C)CN(C(=O)c1cccc(S(=O)(=O)N2CCCCC2)c1)C1CCS(=O)(=O)C1` (stereo not given) as the molecule, how does the “activity change, negative = cytotoxicity” value read?
Answer: inactive: -2.08%

Question: For `CCOC(=O)c1ccc(NC(=O)Cn2c(=O)n(-c3ccc(C)cc3)c(=O)c3c2cnn3C)cc1`, which “activity change, negative = cytotoxicity” value is on record?
Answer: inactive: 18.1%
